Reference: US11466066B2, “Variants of human BMP7 protein” (ELI LILLY AND COMPANY, priority 2017, dated 2022)

Assays:
[1] = Stir-induced aggregation (solubility) assay; assay type: physicochemical; conditions: 40 μg/mL, pH 7.4, stirred 400 rpm
Procedure: Solubility/physical stability of human BMP7 protein and human BMP7 protein variants may be measured in a stir-induced aggregation assay. Proteins are diluted to 40 μg/mL with assay buffer (50 mM sodium phosphate, 150 mM NaCl, pH 7.4) to a total volume of 2 mL. This solution may be put in a 7 mL glass vial containing one ‘flea’ stir bar and stirred at 400-rpm at room temperature. At periodic intervals (typically 0, 30, 60, 90, 120, and 150 minutes) a 150 μL aliquot may be withdrawn and centrifuged for 2 minutes at 16,000×g in a 1.5 mL tube. The supernatant (120 μL) may be transferred to an HPLC vial and the amount of remaining protein may be determined by reversed-phase HPLC under the following conditions: Zorbax C8 SB-300® column (3.5 micron, 4.6×50 mm), mobile phase: A buffer=0.1% TFA (v/v) in water, B buffer=0.085% TFA (v/v) in acetonitrile; flow rate at 1 mL/minute; column heated to 60° C.; autosampler cooled to 10° C., 214 nm UV detection, 80 μL injection, and 20 minute run time using the linear gradient indicated below. From the HPLC chromatograms (not shown) the protein peak or peaks (e.g., mature and pro domains) are integrated and percent change from initial peak area may be calculated.

[2] = system: ADSC/ECFC co-culture stimulated with VEGF; assay: VEGF-driven cord formation; assay type: cell-based; conditions: 100 ng/ml; 10 ng/ml VEGF; 96 hours
Excerpt: An in vitro endothelial cord formation assay, a surrogate of angiogenesis, may be used to investigate the role of human BMP7 proteins on various growth factor established cords including, but not limited to, VEGF, basic FGF, and EGF established cords. Endothelial cord forming cells (ECFCs; passage 4-10 suitable for cord formation) may be cultured in EGM-2 MV (Lona) media containing a final concentration of 10% FBS and passaged onto type 1 collagen (fibrillar) coated flasks prior to seeding into the cord formation assay in vitro. […]
An ADSC/ECFC co-culture was unstimulated (basal) or stimulated with 10 ng/ml VEGF and treated simultaneously with PBS or 100 ng/ml human pro-BMP7 variant F9 or 100 nM sunitinib for 96 hours prior to immunohistochemistry for CD31 (green), α-smooth muscle actin (red), and Hoechst 33342 to stain all nuclei (blue). Resulting CD31-positive endothelial cords were visualized and quantitated using high content imaging. […]

Coco = biological target: T1, Coco (Homo sapiens, UniProt Q8N907); assay: BMP inhibitor activity, hepcidin promoter luciferase: Coco; assay type: cell-based
T1 construct: purchased R&D Systems
T1 sequence (Q8N907 23-189): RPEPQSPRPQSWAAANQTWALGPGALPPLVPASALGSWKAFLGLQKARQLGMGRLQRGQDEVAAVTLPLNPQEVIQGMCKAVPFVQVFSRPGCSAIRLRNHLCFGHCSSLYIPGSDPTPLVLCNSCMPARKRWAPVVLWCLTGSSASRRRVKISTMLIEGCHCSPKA
Procedure: Briefly described, Hep3B2 cells stably transfected with a hepcidin promoter luciferase construct (hereinafter, referred to as Hep3B2_HepPro_luc cells) were used for BMP inhibitor experiments. Hep3B2_HepPro_luc cells may be plated at 30,000 cells per well in a tissue culture treated 96 well plate in DMEM (Hyclone) 5% FBS (Gibco) supplemented with non-essential amino acids (Hyclone) and 200 μg/ml gentecin (Hyclone) for 24 hours. Cells were then starved in OMEM+0.2% BSA for 5 hours. Cells were treated with a mixture of human BMP7 proteins and variants thereof in OMEM (Gibco)+0.2% BSA (Gibco) for 18 hours then developed for luciferase activity utilizing Luciferase reporter Gene Assay Kit (Roche). BMP7 proteins were added at concentrations in the linear range of the assay, at 1 nM and 100 pM. Inhibitors were added at various concentrations in molar excess of the particular BMP7 protein being tested. All BMP inhibitors except Follistatin were purchased from R&D Systems. Follistatin and BMP7 proteins and variants thereof were generated at Eli Lilly and Company.

% inhibition (Coco; molar excess 0.1X): −35.4%
% inhibition (Coco; molar excess 1X): −27.5%
% inhibition (Coco; molar excess 10X): 7.0%
B1: Human pro-BMP7 Variant F9: wild type pro-domain + variant mature BMP7 F9 (402 aa), SEQ ID NO: 16 (protein)
chain: DFSLDNEVHSSFIHRRLRSQERREMQREILSILGLPHRPRPHLQGKHNSAPMFMLDLYNAMAVEEGGGPGGQGFSYPYKAVFSTQGPPLASLQDSHFLTDADMVMSFVNLVEHDKEFFHPRYHHREFRFDLSKIPEGEAVTAAEFRIYKDYIRERFDNETFRISVYQVLQEHLGRESDLFLLDSRTLWASEEGWLVFDITATSNHWVVNPRHNLGLQLSVETLDGQSINPKLAGLIGRHGPQNKQPFMVAFFKATEVHFRSIRSTGSKQRSQNRSKTPKNQEALRMANVAENSSSDQRQACKKHELYVSFRDLGWQDWIIAPEGYAAGYCEGECAFPLNSYMNATNHALVQTLVHVINPETVPKPCCAPTQLGAISVLYFDDSSNVILKKWRNMVVRACGCH
Percent of Material Precipitated ([1]; 0 minutes): 0%
Percent of Material Precipitated ([1]; 30 minutes): 9%
Percent of Material Precipitated ([1]; 60 minutes): 23%
Percent of Material Precipitated ([1]; 90 minutes): 36%
Percent of Material Precipitated ([1]; 120 minutes): 43%
Percent of Material Precipitated ([1]; 150 minutes): 55%
Connected Tube Area - VEGF (% PBS) [2]: 18.66 ± 3.72%
